The campaign covered roughly 360,000 compounds. About 11,000 (3.1%) were called active. The inconclusive results got no clear call from the source; some entries with a clear call stand among them for comparison. The call rests on the fitted dose curve; in most records, active means well fitted inhibition curve with a large enough effect; inconclusive means small, poorly fitted or top-dose-only effect; inactive means no such curve, though single readings can be large or run the other way. No potency is given beside an inconclusive call; the fits are too rough.
Each compound was assayed against Schistosoma mansoni thioredoxin glutathione reductase (TGR) (UniProt Q962Y6) (assay: qHTS Assay for the Inhibitors of Schistosoma Mansoni Peroxiredoxins). Conditions: purified TGR, DTNB reduction, TNB absorbance 405 nm; activity change, negative = inhibition: at 114 µM (top of the series) unless noted.
Procedure, shortened: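 TGR 20 nM + NADPH 100 uM (dispensed conc.), cpd preinc 15 min RT; start with NADPH (500 uM addition) then DTNB (15 mM addition). Kinetic TNB absorbance, 405 nm filter. Four-parameter Hill fit across titration.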
`C/C(=N\NC(=O)c1c(Br)c(C)nn1C)c1cccc(NC(=O)c2ccccc2C)c1` was tested, and the “activity change, negative = inhibition” value was inactive: 0.642%.
For `CCCc1ccc(C#N)c(SC2CC(=O)N(c3ccc(OC)cc3)C2=O)n1` (stereo unspecified), the Potency was inconclusive [inhibitor, partial curve].
For `CCOC(=O)C1=C(N)Oc2cc(C)oc(=O)c2C12C(=O)N1c3c(cc(OC)cc32)C(C)=CC1(C)C` (stereo unspecified), the Potency was inconclusive [inhibitor, partial curve].
`COc1ccc(-c2cc(C(=O)NCCc3ccc(Cl)cc3)[nH]n2)cc1` was tested, and the Potency was inconclusive [inhibitor, single point].
In the case of `CSC1=NC(C)(C)C=C(/C=C/c2c(Cl)cccc2Cl)N1`, the Potency is reported as active: 15.8 µM.
In the case of `Cc1ccc(CN2C(=O)CCC2C(=O)NCCN(CC(C)C)CC(C)C)cc1` (stereo unspecified), the Potency is reported as inconclusive [inhibitor, full curve, poor fit].
`Cc1cccc(N2CCN(C(=O)COCc3cc(-c4ccc5c(c4)OCO5)on3)CC2)c1C` was tested, and the Potency was inconclusive [inhibitor, partial curve].
With `Cc1ccc(C)c2c3c([nH]c12)-c1nonc1CC3` the Potency was inconclusive [inhibitor, single point].
With `Cc1ccc2c(c1)CC1(CN2C)C(=O)NC(=O)N(C(C)C)C1=O` (stereo unspecified) the Potency was inconclusive [inhibitor, single point].
`N#CC1=C(SCc2ccccc2)NC(=O)CC1c1ccco1` (stereo unspecified) was tested, and the Potency was active: 35.5 µM.
With `CCC1(C)Cc2c(C#N)c(N)sc(=S)c2CO1` (stereo unspecified) the Potency was inconclusive [inhibitor, partial curve].
`Cc1ccc(CNC(=O)CCC2CCCN(Cc3cccc4c3OCO4)C2)o1` (stereo unspecified) was tested, and the Potency was inconclusive [inhibitor, partial curve].
With `c1ccc(N2OCC3Cn4c(nc5ccccc54)C32)cc1` (stereo unspecified) the Potency was inconclusive [inhibitor, partial curve].
In the case of `Cc1cccc(OCCN2CCOCC2)c1C`, the Potency is reported as inconclusive [inhibitor, full curve, poor fit].
For `O=C1CNC(=O)/C1=C\N1CCN(C(c2ccccc2)c2ccccc2)CC1`, the Potency was inconclusive [inhibitor, partial curve, poor fit].
`COc1ccc([C@H]2C(C#N)=C([S-])N[C@](C)(O)[C@@H]2[n+]2ccccc2)cc1` was tested, and the Potency was inconclusive [inhibitor, single point].
In the case of `CCN(CC)c1ccc(/C=N/N2CCN(Cc3ccccc3)CC2)c(O)c1`, the “activity change, negative = inhibition” value is reported as inactive: -14.5%.
`CCN(Cc1nc2cc(Cl)ccc2c(=O)[nH]1)C(=O)c1ccc(C)c(NC(=O)c2ccco2)c1` was tested, and the Potency was inconclusive [inhibitor, full curve].
`CCOC(=O)/C=C/C(=O)OCC(=O)Nc1ccc(C)cc1` was tested, and the Potency was active: 12.6 µM.
With `O=C(/C=C/c1c(F)cccc1Cl)NCc1ccc2c(c1)OCO2` the Potency was inconclusive [inhibitor, single point].
With `Cc1ccc(OCCNC(=O)/C=C/c2ccco2)cc1C` the Potency was active: 1.12 µM.
For `C#Cc1ccc([C@H]2C=C(C(=O)N3CCN(Cc4ccc5c(c4)OCO5)CC3)O[C@@H](OCc3ccc(CO)cc3)C2)cc1`, the Potency was inconclusive [inhibitor, partial curve].
For `O=C1CCC/C1=C\c1ccccc1`, the Potency was active: 44.7 µM.
In the case of `O=C(N/N=C/c1c[nH]c2ccccc12)c1ccncc1`, the “activity change, negative = inhibition” value is reported as inactive: -0.696%.
With `Cc1ccc(/C=N/NC(=O)c2cc(-c3ccccc3)nc3ccccc23)o1` the Potency was inconclusive [inhibitor, partial curve].
With `CCC1CCCCN1C(=O)N[C@@H](CCSC)C(=O)OC` (stereo partly specified) the Potency was inconclusive [inhibitor, partial curve].
In the case of `O=C1NC2(CCCCC2)C(=O)N1/N=C/c1ccccc1Br`, the “activity change, negative = inhibition” value is reported as inactive: 0.653%.
In the case of `CCN1CCc2nc(NC(=O)CC(c3ccccc3)c3ccccc3)sc2C1`, the Potency is reported as inconclusive [inhibitor, single point].
`O=C1C=C(N2CCOCC2)c2ccccc2C1=O` was tested, and the Potency was inconclusive [inhibitor, partial curve].
In the case of `CCN(CC)CCCN1C(=O)C(O)=C(C(=O)c2ccc(C)o2)C1c1ccc(C)o1` (stereo unspecified), the Potency is reported as active: 50.1 µM.
For `O=C(O)c1ccc(/C=N/N2CCN(C3c4ccccc4-c4ccccc43)CC2)cc1`, the Potency was inconclusive [inhibitor, partial curve].
`COc1ccc(-c2cc(C#N)nc(Oc3ccc(Cl)cc3)n2)cc1` was tested, and the “activity change, negative = inhibition” value was inactive: -6.37%.
`Cc1ccc(OCC(=O)c2c(N)n(C)c(=O)n(C)c2=O)c([N+](=O)[O-])n1` was tested, and the Potency was inconclusive [inhibitor, partial curve].
In the case of `Cc1ccccc1C(=O)Oc1cc(-c2ccc3c(c2)OCO3)cc(=O)c2c(C)oc(C)c12`, the Potency is reported as inconclusive [inhibitor, partial curve].
In the case of `O=C(N1CCc2[nH]c3ccccc3c2C1)C(F)(F)F`, the Potency is reported as inconclusive [inhibitor, single point].
`CC(=NCCN(C)C)c1c(O)n(Cc2ccccc2)c(=O)[nH]c1=O` was tested, and the Potency was inconclusive [inhibitor, partial curve].
In the case of `CCCCCC(=O)NC(=S)Nc1ccccc1C(=O)OC`, the Potency is reported as inconclusive [inhibitor, partial curve].
With `CCS(=O)(=O)N1CCN(Cc2ccncc2)CC1` the “activity change, negative = inhibition” value was inactive: 5.41%.
`Nc1nc(CCl)nc(Nc2ccccc2)n1` was tested, and the Potency was active: 39.8 µM.
`COc1ccc2cc(CCNC(=O)c3ccc(Br)o3)c(=O)[nH]c2c1` was tested, and the Potency was inconclusive [inhibitor, partial curve].
For `C1=CC2c3ccccc3NC(c3ccncc3)C2C1` (stereo unspecified), the Potency was active: 2.51 µM.
`Cc1ccc(Cl)cc1NC(=O)COC(=O)C1CCCCC1` was tested, and the Potency was inconclusive [inhibitor, full curve, poor fit].
For `COc1cc(OC)cc(-c2oc3cccnc3c2C#CCCO)c1`, the Potency was inconclusive [inhibitor, full curve].
For `COCc1ccc(CN2CCCC(C(=O)Nc3ccccc3-c3ccc(OC)cc3)C2)o1` (stereo unspecified), the Potency was inconclusive [inhibitor, single point].
For `O=CN1CCN(C(=O)CN2C(=O)c3ccccc3C2=O)CC1`, the Potency was inconclusive [inhibitor, single point].
`Cc1cc(C(=O)CN2c3cccc4cccc(c34)S2(=O)=O)c(C)n1C` was tested, and the Potency was inconclusive [inhibitor, partial curve].
With `CCCC(=O)Nc1c2c(nn1-c1ccc(C)cc1)CS(=O)(=O)C2` the “activity change, negative = inhibition” value was inactive: -12.6%.
For `Cc1cc(C)nc(Nc2ccc(C(=O)O)cc2)n1`, the “activity change, negative = inhibition” value was inactive: 0.335%.
With `O=C(c1cc(S(=O)(=O)N2CCCC2)c[nH]1)N1CCN(c2cccc(Cl)c2)CC1` the “activity change, negative = inhibition” value was inactive: -3.35%.
In the case of `COC(=O)c1ccccc1-c1ccc(C=O)o1`, the Potency is reported as inconclusive [inhibitor, partial curve].
With `Cc1nn(-c2ccccc2)c2nc(-c3ccco3)cc(C(=O)O)c12` the Potency was inconclusive [inhibitor, partial curve, poor fit].
For `COc1ccc(NC(=O)CC2Sc3ncnn3C2=O)cc1` (stereo unspecified), the Potency was active: 0.631 µM.
With `O=C1NC(=O)N(Cc2ccco2)C(=O)/C1=C\c1cccn1CCOc1ccc(Cl)cc1` the Potency was inconclusive [inhibitor, partial curve].
With `CCOc1ccc(NC(=O)CSc2nc(-c3ccccc3)c3cc(OCC)ccc3n2)cc1` the “activity change, negative = inhibition” value was inactive: 7.22%.
In the case of `O=S(=O)(c1ccc(Cl)cc1)N1CCSC1c1ccco1` (stereo unspecified), the Potency is reported as inconclusive [inhibitor, partial curve].
With `COCCNCCOCCOc1cccc(OC)c1` the Potency was inconclusive [inhibitor, partial curve].
For `CC(Nc1ncnc2nc[nH]c12)c1ccccc1` (stereo unspecified), the “activity change, negative = inhibition” value was inactive: -7.74%.
With `Cc1ccc(-n2nc3c(c2NC(=O)c2cccs2)CS(=O)(=O)C3)cc1` the Potency was inconclusive [inhibitor, partial curve].
For `CCOc1ccc(C(=O)C[n+]2cccc3cc(C)ccc32)cc1`, the “activity change, negative = inhibition” value was inactive: -6.01%.
`COc1ccc(C(C)=O)cc1COc1ccccc1[N+](=O)[O-]` was tested, and the Potency was active: 11.2 µM.
`CCOc1ccccc1CN1CCNC(=O)C1CC(=O)NCc1cc(C)n(C)n1` (stereo unspecified) was tested, and the Potency was inconclusive [inhibitor, partial curve].
With `CCc1cc2cc(C(=O)N3CCN(Cc4ccccc4)CC3)sc2s1` the “activity change, negative = inhibition” value was inactive: 5.73%.
For `COc1ccc(N2C(=O)c3cccc4c(N(C)CCO)ccc(c34)C2=O)cc1`, the Potency was inconclusive [inhibitor, full curve, poor fit].
For `Cc1nn(C)c(C(=O)Nc2c(C)nn(Cc3c(F)c(F)c(F)c(F)c3F)c2C)c1Br`, the “activity change, negative = inhibition” value was inactive: 23.2%.
In the case of `COc1ccc(S(=O)(=O)N(C)CC(=O)NCc2ccco2)cc1`, the Potency is reported as inconclusive [inhibitor, partial curve].
With `Cc1ccc(NC(=O)C2=C(c3ccccc3)S(=O)(=O)CCS2(=O)=O)cc1` the Potency was active: 0.316 µM.
With `CC1=C(C(=O)OCCCBr)C(c2ccc3c(c2)OCO3)NC(=O)N1` (stereo unspecified) the Potency was active: 25.1 µM.
`CCn1ccnc1CN1CCc2c([nH]c3ccccc23)C1C1CCCCC1` (stereo unspecified) was tested, and the “activity change, negative = inhibition” value was inactive: 0% [at 57.1 µM].
With `CCOC(=O)c1cc(CC)sc1NC(=O)CN1CCN(C(=O)c2ccco2)CC1` the Potency was inconclusive [inhibitor, full curve, poor fit].
In the case of `COc1ccccc1/C=N/NC(=O)c1cc2c(ccc3ccccc32)o1`, the Potency is reported as inconclusive [inhibitor, full curve, poor fit].
`C/C=C(\C)C(=O)O[C@H](c1cc2ccc(=O)oc2cc1OC)[C@@H](O)C(C)(C)O` was tested, and the Potency was inconclusive [inhibitor, partial curve].

— PubChem BioAssay AID485364 (National Center for Advancing Translational Sciences (NCATS), 2010)
Further: nearly all actives have a fitted effect of over 60% in size.
On the % scale 0 is the no-effect control and ±100 the full control effect; potency means the concentration at half of the fitted maximal effect; tags describe the fitted curve by direction and shape.
